# Assay results from PubChem BioAssay AID504832 (National Center for Advancing Translational Sciences (NCATS), 2011).
# About 18,000 (5.8%) of roughly 310,000 compounds were called active. The inconclusive results got no clear call from the source; some entries with a clear call stand among them for comparison. Calls come from the whole dose curve; as a rule, active = well fitted inhibition curve with a large enough effect; inconclusive = small, poorly fitted or top-dose-only effect, or another doubt; inactive = no such curve, though single readings can be large or run the other way. Potencies of inconclusive entries are left out as doubtful fits.
# Experiment: Primary qHTS for delayed death inhibitors of the malarial parasite plastid, 48 hour incubation
# Conditions: P. falciparum luciferase growth in erythrocytes; series mostly up to 28.7 µM; activity change, negative = inhibition: at the top concentration
# Method in brief: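 A one-generation exposure of luciferase-tagged malaria parasites in RPMI 1640/Albumax erythrocyte culture, 37 C and 5% CO2. Inhibition is inferred from decreased luminescence after adding detection reagent.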
# % is set by controls: 0 for no effect and ±100 for the full control effect; potency is the fitted concentration of half-maximal effect; tags give direction and shape of the fitted curve.
SMILES,Potency,"activity change, negative = inhibition"
CC(=O)c1c(N2CCN(c3ccccn3)CC2)nc(=S)n(-c2ccccc2)c1C,"inconclusive [inhibitor, single point]",–
CCCCC,–,inactive: -14.2%
Cc1ccc(COCC(CC(C)C)N2CCN(C(=O)c3cccc(C(F)(F)F)c3)CCC2=O)cc1 (configuration not stated),"inconclusive [inhibitor, partial curve]",–
O=C(CCCn1c(=S)[nH]c2ccccc2c1=O)N1CCOCC1,–,inactive: 14.4%
CC(=O)Nc1ccc(N2C(C(C)=O)=NN(c3ccc(Cl)cc3)C2c2sccc2C)cc1 (configuration not stated),active: 9.28 µM,–
CC(NC(=O)COC(=O)c1ccc2c(=O)n3c(nc2c1)CCCCC3)c1ccccc1 (configuration not stated),"inconclusive [inhibitor, partial curve, poor fit]",–
CCc1nc(C)cn1S(=O)(=O)c1ccc(Br)cc1,–,inactive: 6.43%
Cc1noc(C)c1COc1cccc(C(=O)OCC(=O)NCCN2C(=O)CSC2=O)c1,"inconclusive [inhibitor, partial curve, poor fit]",–
COc1ccc(/C=N\NC(=O)c2cccc([N+](=O)[O-])c2)cc1Cn1cc([N+](=O)[O-])cn1,"inconclusive [inhibitor, single point]",–
c1ccc(-c2nnc(SCCC3OCCCO3)o2)cc1,–,inactive: 272%
Cc1ccc(NC(=O)CNCc2cccs2)cc1Br,–,inactive: 7.19%
Cc1ccc(NC(=O)C(=Cc2ccc(C(=O)O)cc2)C(=O)Nc2ccc(C)cc2C)c(C)c1,"inconclusive [inhibitor, full curve]",–
COc1ccccc1OCC(=O)N1CC2(C)CC1CC(C)(C)C2 (configuration not stated),–,inactive: -4.38%
O=C(NC12CC3CC(CC(C3)C1)C2)c1ccc(Br)o1,"inconclusive [inhibitor, single point]",–
Cc1c(NC(=O)c2c(N)n(-c3ccccc3)c3nc4ccccc4nc23)c(=O)n(-c2ccccc2)n1C,–,inactive: -9.56%
CC(=O)N1CCN(C(=O)c2ccc(Cl)c(S(=O)(=O)N3CCc4ccccc43)c2)CC1,"inconclusive [inhibitor, single point]",–
O=C(c1ccco1)N(Cc1cc2ccccc2[nH]c1=O)C1CCCCC1,"inconclusive [inhibitor, partial curve, poor fit]",–
O=S(=O)(c1cc(Cl)cc(Cl)c1)N1CCCC1c1nc2ccccc2s1 (configuration not stated),"inconclusive [inhibitor, single point]",–
COc1cccc2cc(C(=O)NCc3ccc(Cl)cc3)c(=N)oc12,"inconclusive [inhibitor, single point]",–
CCOC(=O)N1CCN(c2cc(NCCC(=O)O)c3c4c(onc24)-c2ccccc2C3=O)CC1,active: 8.28 µM,–
CCn1cc(CN2CCc3c([nH]c4ccccc34)C2c2cccc(OC)c2)c(C)n1 (configuration not stated),active: 11.7 µM,–
CCc1nnc(NC(=O)CSc2nnc(-c3ccccc3O)o2)s1,–,inactive: 25.5%
CCc1cccc(OCC(=O)Nc2ccc(C(=O)O)cc2NC(=O)COc2cccc(CC)c2)c1,"inconclusive [inhibitor, single point]",–
COc1cc(CN2CCN(C(=O)c3cccc4ccccc34)CC2)cc(OC)c1OC,"inconclusive [inhibitor, partial curve]",–

SMILES,Potency,"activity change, negative = inhibition"
O=C(CCCNC(=O)c1ccc(Cl)cc1)Nc1cccc(S(=O)(=O)N2CCCCC2)c1,"inconclusive [inhibitor, partial curve, poor fit]",–
C[C@@H](C(=O)Nc1ccc2ccccc2c1)[C@H]1C[C@]1(C)[C@H](NC(=O)c1cnccn1)c1ccccc1,active: 2.94 µM,–
Cc1cccc(OCC(=O)Nc2cc(Cl)ccc2-n2cncn2)c1C,"inconclusive [inhibitor, single point]",–
O=C1CCC(=O)N1c1ccc(S(=O)(=O)Nc2cccc([N+](=O)[O-])c2)cc1,–,inactive: 0.616%
CCOc1cccc2sc(N(CCCN(C)C)C(=O)c3ccc(S(=O)(=O)N(C)c4ccccc4)cc3)nc12,"inconclusive [inhibitor, single point]",–
Cc1cccc(NC(=O)c2cc3n(n2)C(C(F)(F)F)CC(c2ccc4c(c2)OCO4)N3)c1 (configuration not stated),"inconclusive [inhibitor, single point]",–
COc1cccc(C(=O)/C=C2\NCCc3cc(OC)c(OC)cc32)c1,"inconclusive [inhibitor, partial curve]",–
NCCc1nnc(SCC(N)=O)o1,"inconclusive [inhibitor, full curve, poor fit]",–
O=C(NCCCN1CCOCC1)c1cc2c(s1)CCCC2,–,inactive: 15.5%
COc1ccc2cc(CN(Cc3ccco3)Cc3nnnn3C3CCCCC3)c(=O)[nH]c2c1,"inconclusive [inhibitor, single point]",–
COC(=O)c1ccccc1NC(=O)CSc1ccc(C)cc1,"inconclusive [inhibitor, partial curve]",–
COCCn1nnnc1C(c1cccc(C(F)(F)F)c1)N1CCOCC1 (configuration not stated),–,inactive: -16%
CCCOc1ccc(N2C(=O)CC(SC(=N)N3N=C(c4ccccc4)CC3c3ccccc3)C2=O)cc1 (configuration not stated),active: 2.33 µM,–
COc1ccc(CNC(=O)c2cccc(S(=O)(=O)N3CCCCC3)c2)cc1OC,"inconclusive [inhibitor, single point]",–
CCN1CCc2c(sc(NC(=O)Cc3ccccc3)c2C(=O)OC)C1,"inconclusive [inhibitor, partial curve, poor fit]",–
CC(=O)Nc1ccc(S(=O)(=O)Oc2ccc(/C=C3\SC(N)=NC3=O)cc2)cc1,"inconclusive [inhibitor, partial curve, poor fit]",–
NNC(=O)c1ccc(N2CCCCCC2)c([N+](=O)[O-])c1,"inconclusive [inhibitor, partial curve, poor fit]",–
CCOc1ccc(N2C(=O)CC(N3CCN(C(=O)c4ccco4)CC3)C2=O)cc1 (configuration not stated),–,inactive: 1.68%
CSc1cccc(NS(=O)(=O)c2cccc3nsnc23)c1,–,inactive: -9.76%
Cc1sc(NC(=O)C2=COCCO2)nc1-c1ccc(Cl)cc1,–,inactive: 19.1%
CS(=O)(=O)N1CCN(c2ccccc2[N+](=O)[O-])CC1,–,inactive: 58.4%
O=C(CSc1cccc2cccnc12)Nc1ccc(S(=O)(=O)N2CCOCC2)cc1,active: 11.7 µM,–
CC1(C)CC(=O)c2c(nc3ccccc3c2N)C1,"inconclusive [inhibitor, single point]",–
Cc1cccc(C(=O)NCC(=O)N2CCOCC2)c1,–,inactive: -9.82%

SMILES,Potency,"activity change, negative = inhibition"
O=C(NCc1ccon1)C1CCC(=O)N(CCc2ccc(Cl)cc2)C1 (configuration not stated),–,inactive: -7.56%
COC(=O)CNC(=O)C1CCN(S(=O)(=O)c2cccc3nsnc23)CC1,–,inactive: 16.6%
NS(=O)(=O)c1ccc(-c2c(-c3ccccc3)sc3ccccc23)cc1,–,inactive: -12.5%
CC(=O)c1ccc(N2CCN(Cc3nc(Cc4ccccc4)no3)CC2)cc1,"inconclusive [inhibitor, partial curve, poor fit]",–
O=C(CN1C(=O)C2CCCN2c2ncc(Cl)cc21)NCc1ccc2c(c1)OCO2 (configuration not stated),active: 9.28 µM,–
COc1ccc(-n2c(-c3ccc(Br)cc3)c[n+]3c2CCC3)cc1,active: 6.57 µM,–
CCCCn1c(-c2ccccc2)nnc1-c1ccccc1,"inconclusive [inhibitor, single point]",–
c1ccc(CCNc2nc(-c3ccncc3)nc3ccccc23)cc1,"inconclusive [inhibitor, partial curve]",–
Cc1oc(-c2ccccc2)nc1CS(=O)CC(=O)NC1CCCCCC1 (configuration not stated),–,inactive: 25.5%
O=C(NCCN1CCCC1)c1ccccc1Cl,–,inactive: 16.7%
COc1ccc(S(=O)(=O)NCc2ccccn2)cc1NC(=O)c1ccccc1C,–,inactive: -4.74%
COc1ccc(CCNC(=O)CSc2nc3c(c(=O)n(C)c(=O)n3C)n2C)cc1OC,–,inactive: 1.48%
CN(C)c1ccc(/C=C/C(O)=C2/C(=O)N(C)C3(C)CC2c2ccccc2O3)cc1 (configuration not stated),"inconclusive [inhibitor, single point]",–
CCCCCCNC(=O)N[C@@H](C(=O)NCCC[C@H]1CN2C(=NC[C@@H]2Cc2ccccc2)N1CCc1cccc(OC)c1)C(C)C,active: 13.1 µM,–
Oc1ccc(/C=N/n2c(-c3ccco3)csc2=Nc2cccnc2)c(O)c1,"inconclusive [inhibitor, single point]",–
Cc1onc(-c2ccccc2)c1C(=O)N1CCN(S(=O)(=O)c2ccccc2C(F)(F)F)CC1,–,inactive: -3.79%
COc1cc2c(Nc3ccc(Br)cc3F)ncnc2cc1OCC1CCN(C)CC1,active: 0.675 µM,–
O=C(COc1ccc(S(=O)(=O)N2CCCC2)cc1Cl)NCc1ccco1,"inconclusive [inhibitor, partial curve, poor fit]",–
O=C(CC1CCCCC1)N1CCC(c2nc(-c3ccc(S(=O)(=O)N4CCCC4)cc3)no2)CC1,"inconclusive [inhibitor, partial curve, poor fit]",–
COc1ccc(-c2cnc3ccccc3n2)cc1NC(=O)CNC(=O)c1ccccc1,–,inactive: 11.4%
CSc1cccc(CNC(=O)C2CCC(=O)N(CC3CCCCC3)C2)c1 (configuration not stated),–,inactive: 1.63%
O=c1[nH]c(=O)n(-c2ccccc2)c2c1C(C(F)(F)F)(C(F)(F)F)N=C(C1CCCCC1)N2,"inconclusive [inhibitor, single point]",–
COc1ccc(C(=O)c2c(C)c3ccccc3n2CC(O)CNC(C)C)cc1 (configuration not stated),active: 11.7 µM,–
Clc1ccc(Cn2c(-c3cccnc3Cl)nc3ccccc32)c(Cl)c1,"inconclusive [inhibitor, partial curve]",–
